Reference: PubChem BioAssay AID1460 (National Center for Advancing Translational Sciences (NCATS), 2008)
The campaign covered roughly 270,000 compounds. About 5,800 (2.1%) were called active. The shares of active, inactive and inconclusive entries below differ from those in the screen. Calls come from the whole dose curve; as a rule, active = well fitted inhibition curve with a large enough effect; inconclusive = small, poorly fitted or top-dose-only effect; inactive = flat fitted curve, though single readings scatter. Where the call is inconclusive, the potency comes from a doubtful curve fit.

Target: Microtubule-associated protein tau (Homo sapiens) (UniProt P10636)
Test: qHTS for Inhibitors of Tau Fibril Formation, Thioflavin T Binding; note: nearly all actives have a fitted effect of over 55% in size
Details: recombinant tau K18 P301L (four-repeat tau fragment), heparin-induced fibrillization, ThT fluorescence; series mostly up to 57.4 µM
Summary of the method: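 In this qHTS, human K18 P301L tau is incubated with compound and heparin for 6 hr at 37 C, and Thioflavin T fluorescence then reports fibril load.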
Potency is the fitted concentration of half-maximal effect; tags give direction and shape of the fitted curve.

UniProt P10636, sequence (P10636 whole entry, looked up): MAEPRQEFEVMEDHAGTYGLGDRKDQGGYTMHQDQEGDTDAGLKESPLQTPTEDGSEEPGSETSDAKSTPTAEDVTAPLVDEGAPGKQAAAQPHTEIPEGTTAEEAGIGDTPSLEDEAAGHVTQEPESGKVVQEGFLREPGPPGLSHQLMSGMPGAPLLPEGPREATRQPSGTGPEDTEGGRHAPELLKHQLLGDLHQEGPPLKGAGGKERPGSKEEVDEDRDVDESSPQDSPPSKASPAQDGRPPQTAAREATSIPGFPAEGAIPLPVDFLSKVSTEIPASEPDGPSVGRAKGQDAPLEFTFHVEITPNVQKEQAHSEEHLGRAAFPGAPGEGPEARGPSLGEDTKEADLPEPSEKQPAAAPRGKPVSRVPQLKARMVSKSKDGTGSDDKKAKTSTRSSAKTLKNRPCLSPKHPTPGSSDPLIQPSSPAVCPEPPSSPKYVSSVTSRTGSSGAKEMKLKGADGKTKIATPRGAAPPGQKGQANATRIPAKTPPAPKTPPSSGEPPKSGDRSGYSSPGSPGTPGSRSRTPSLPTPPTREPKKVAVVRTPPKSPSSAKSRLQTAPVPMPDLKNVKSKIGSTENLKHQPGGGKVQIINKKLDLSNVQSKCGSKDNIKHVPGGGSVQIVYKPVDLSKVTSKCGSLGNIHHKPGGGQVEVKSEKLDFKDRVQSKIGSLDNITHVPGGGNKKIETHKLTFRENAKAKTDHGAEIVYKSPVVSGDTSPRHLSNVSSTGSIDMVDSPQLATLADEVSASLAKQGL

| Structure (SMILES) | Potency |
| --- | --- |
| COc1ccc(N2CCN(C(=O)CSc3nnc4c(C)cc5ccccc5n34)CC2)cc1 | inconclusive: 15.8 µM [inhibitor, partial curve, poor fit] |
| COc1ccc(OC)c(-n2c(-c3cccc(C)c3)n[nH]c2=S)c1 | inactive |
| Cc1ccc(OCC(=O)Nc2sc3c(c2C#N)CC(C)(C)NC3(C)C)cc1 | inactive |
| CCOC(=O)N1CCN(C(=S)NC(=O)c2ccnn2C)CC1 | inactive |
| CCOC(=O)c1c(C(C)(C)C)oc2ccc(O)cc12 | inactive |
| O=C(CSc1nc2cc(Cl)c(Cl)cc2[nH]1)c1ccc2c(c1)OCO2 | inconclusive: 3.16 µM [inhibitor, full curve] |
| CC(C)[C@H](NC(=O)OC(C)(C)C)c1nnc(S(=O)(=O)Cc2c(F)cccc2Cl)o1 | inactive |
| O=C(CCCn1c2ccccc2c(=O)c2ccccc21)Nc1ccc(F)cc1Cl | inconclusive: 12.6 µM [inhibitor, partial curve] |
| Nc1c(C(O)(C(F)(F)F)C(F)(F)F)cc(C(O)(C(F)(F)F)C(F)(F)F)c2ccccc12 | inconclusive: 14.1 µM [inhibitor, partial curve] |
| Cc1cc2c(NC(=O)Nc3ccc(C(F)(F)F)cc3)cccc2nn1 | inconclusive: 35.5 µM [inhibitor, partial curve] |
| Cc1ccc2c(CC(=O)OCc3nc(N)nc(Nc4ccccc4C)n3)coc2c1 | inconclusive: 39.8 µM [inhibitor, single point] |
| O=C(c1ccc(-c2cc3ccccc3oc2=O)cc1)N1CCN(c2ccc(Cl)cc2[N+](=O)[O-])CC1 | inconclusive: 10 µM [inhibitor, partial curve] |
| Nc1nnc(SCC(=O)c2ccccc2)s1 | inactive |
| Cc1cc(C)n2c(Br)c(CSc3nc4ccccc4s3)nc2n1 | inconclusive: 35.5 µM [inhibitor, single point] |
| O=c1[nH]c(/C=C/c2ccc3c(c2)OCO3)c([N+](=O)[O-])c(=O)[nH]1 | inconclusive: 3.55 µM [inhibitor, full curve] |
| O=C(O)c1ccccc1-c1c2ccc(=O)cc-2oc2cc(O)ccc12 | inconclusive: 0.355 µM [activator, full curve] |
| CCC(SC1=Nc2ccccc2C2=NC(CC(C)C)C(=O)N12)C(=O)Nc1ccc2c(c1)OCO2 (stereo unspecified) | inconclusive: 28.2 µM [inhibitor, partial curve] |
| Oc1ccccc1N=Cc1ccc[nH]1 | inconclusive: 25.1 µM [inhibitor, partial curve] |
| Cc1cccc(-c2nc(Cn3c(SCc4cc(C)ccc4C)nc4ccncc43)c(C)o2)c1 | inconclusive: 15.8 µM [inhibitor, partial curve, poor fit] |
| O=[N+]([O-])c1ccc(C=Nc2cccc3ccccc23)s1 | inconclusive: 20 µM [inhibitor, partial curve, poor fit] |
| Cc1ccc(N(Cc2cccs2)C(=O)COc2ccccc2[N+](=O)[O-])cc1 | inactive |
| COc1ccccc1C(OC(=O)c1cccs1)C(=O)NCc1ccco1 (stereo unspecified) | inconclusive: 39.8 µM [inhibitor, single point] |
| N#Cc1c(NC(=O)C2CC(c3ccccc3Cl)=NO2)sc2c1CCC2 (stereo unspecified) | inactive |

| Structure (SMILES) | Potency |
| --- | --- |
| COc1cccc(C2CC(=O)N3CN(C4CCCCC4)CSC3=C2C#N)c1 (stereo unspecified) | active: 35.5 µM |
| O=C(Nc1nnc(SCc2ccc(F)cc2)s1)c1cccnc1Cl | inactive |
| CC(=O)c1sc(NC(=O)COc2ccccc2)nc1C | inconclusive: 44.7 µM [inhibitor, single point] |
| CCOc1cc(/C=N/NC(=O)c2ccc(-c3csc(Nc4ccc(C)cc4)n3)cc2)ccc1OCC(=O)O | active: 2.82 µM |
| CCOc1ccccc1CN(CCc1ccc2c(c1)OCO2)Cc1cccc(OC)c1OC | inactive |
| COCC(=O)Nc1nc(-c2ccccc2)c(C)s1 | inactive |
| O=c1[nH]ncn1-c1ccccc1C(F)(F)F | inactive |
| CN(CCO)c1ccc(-c2nn(C)c(=O)c3ccccc23)cc1[N+](=O)[O-] | inconclusive: 35.5 µM [inhibitor, partial curve] |
| O=C1C(Cl)=C(N2CCOCC2)C(=O)N1c1ccccc1 | active: 12.6 µM |
| O=C(c1ccco1)N1CCN(c2ncnc3c2[nH]c2ccccc23)CC1 | inconclusive: 31.6 µM [inhibitor, single point] |
| CCOC(=O)C1=NN(C(=O)c2ccc(C)cc2)C(O)(c2ccc(Cl)cc2)C1 (stereo unspecified) | inconclusive: 28.2 µM [inhibitor, single point] |
| Nc1cccc(Nc2ccccc2)c1 | inconclusive: 14.1 µM [inhibitor, partial curve] |
| COc1ccccc1CNC(=O)CCC1N=C2c3ccccc3N=C(SCC(=O)NCCc3ccc(OC)c(OC)c3)N2C1=O (stereo unspecified) | inactive |
| O=C(NNC(=O)c1ccccc1[N+](=O)[O-])c1ccccc1[N+](=O)[O-] | inactive |
| Cc1ccc(-c2nc(S(=O)(=O)c3ccc(C)cc3)c(SCC(=O)NC3CCCCC3)o2)cc1 | inactive |
| O=c1cc(-c2ccccc2)[nH]c2nc3ccccc3n12 | inconclusive: 10 µM [inhibitor, partial curve] |
| Cc1n[nH]c(=S)n1/N=C/c1ccc(OCc2ccc(Cl)cc2Cl)cc1 | inconclusive: 8.91 µM [inhibitor, partial curve] |
| CCC[C@@H]1C[C@@]1(CCC)C(NS(=O)(=O)c1cccc2cccnc12)c1ccc(Cl)cc1 (stereo partly specified) | inconclusive: 22.4 µM [inhibitor, partial curve] |
| CN1CC(=O)N/C1=N\C(=O)Nc1ccc2c(c1)N(C)C(=O)CS2 | inconclusive: 12.6 µM [inhibitor, partial curve] |
| CCOC(=O)c1c(C)[nH]c2cc(Br)c(OC)cc12 | inactive |
| CCOc1ccc(NC(=O)c2ccc(-c3cccc(Cl)c3C)o2)cc1 | inconclusive: 2.51 µM [inhibitor, full curve] |
| COc1ccc(OC)c2c(C)c(C)[nH]c12 | inconclusive: 22.4 µM [inhibitor, partial curve] |
| Cc1ccc(-c2ccc(/C=N/n3cnnc3)o2)cc1Cl | inconclusive: 8.91 µM [inhibitor, partial curve] |
